Measurements reported in PMC2728203.
Positions count from the first letter of the chain named. Results are given in words; binding and its absence hold for the method and conditions named. For some assays here: Binding seen in cells or lysates may run through a third protein. Some results given as binding are weak or reduced against the parent protein; the word gives no strength. Tags and fused reporters may be left off the sequences shown.

Chains of the proteins cited; added tags and fusions are not shown. Lines headed by an entry give the natural chain unless they say otherwise; changes in a name come on top.
UniProt Q02455: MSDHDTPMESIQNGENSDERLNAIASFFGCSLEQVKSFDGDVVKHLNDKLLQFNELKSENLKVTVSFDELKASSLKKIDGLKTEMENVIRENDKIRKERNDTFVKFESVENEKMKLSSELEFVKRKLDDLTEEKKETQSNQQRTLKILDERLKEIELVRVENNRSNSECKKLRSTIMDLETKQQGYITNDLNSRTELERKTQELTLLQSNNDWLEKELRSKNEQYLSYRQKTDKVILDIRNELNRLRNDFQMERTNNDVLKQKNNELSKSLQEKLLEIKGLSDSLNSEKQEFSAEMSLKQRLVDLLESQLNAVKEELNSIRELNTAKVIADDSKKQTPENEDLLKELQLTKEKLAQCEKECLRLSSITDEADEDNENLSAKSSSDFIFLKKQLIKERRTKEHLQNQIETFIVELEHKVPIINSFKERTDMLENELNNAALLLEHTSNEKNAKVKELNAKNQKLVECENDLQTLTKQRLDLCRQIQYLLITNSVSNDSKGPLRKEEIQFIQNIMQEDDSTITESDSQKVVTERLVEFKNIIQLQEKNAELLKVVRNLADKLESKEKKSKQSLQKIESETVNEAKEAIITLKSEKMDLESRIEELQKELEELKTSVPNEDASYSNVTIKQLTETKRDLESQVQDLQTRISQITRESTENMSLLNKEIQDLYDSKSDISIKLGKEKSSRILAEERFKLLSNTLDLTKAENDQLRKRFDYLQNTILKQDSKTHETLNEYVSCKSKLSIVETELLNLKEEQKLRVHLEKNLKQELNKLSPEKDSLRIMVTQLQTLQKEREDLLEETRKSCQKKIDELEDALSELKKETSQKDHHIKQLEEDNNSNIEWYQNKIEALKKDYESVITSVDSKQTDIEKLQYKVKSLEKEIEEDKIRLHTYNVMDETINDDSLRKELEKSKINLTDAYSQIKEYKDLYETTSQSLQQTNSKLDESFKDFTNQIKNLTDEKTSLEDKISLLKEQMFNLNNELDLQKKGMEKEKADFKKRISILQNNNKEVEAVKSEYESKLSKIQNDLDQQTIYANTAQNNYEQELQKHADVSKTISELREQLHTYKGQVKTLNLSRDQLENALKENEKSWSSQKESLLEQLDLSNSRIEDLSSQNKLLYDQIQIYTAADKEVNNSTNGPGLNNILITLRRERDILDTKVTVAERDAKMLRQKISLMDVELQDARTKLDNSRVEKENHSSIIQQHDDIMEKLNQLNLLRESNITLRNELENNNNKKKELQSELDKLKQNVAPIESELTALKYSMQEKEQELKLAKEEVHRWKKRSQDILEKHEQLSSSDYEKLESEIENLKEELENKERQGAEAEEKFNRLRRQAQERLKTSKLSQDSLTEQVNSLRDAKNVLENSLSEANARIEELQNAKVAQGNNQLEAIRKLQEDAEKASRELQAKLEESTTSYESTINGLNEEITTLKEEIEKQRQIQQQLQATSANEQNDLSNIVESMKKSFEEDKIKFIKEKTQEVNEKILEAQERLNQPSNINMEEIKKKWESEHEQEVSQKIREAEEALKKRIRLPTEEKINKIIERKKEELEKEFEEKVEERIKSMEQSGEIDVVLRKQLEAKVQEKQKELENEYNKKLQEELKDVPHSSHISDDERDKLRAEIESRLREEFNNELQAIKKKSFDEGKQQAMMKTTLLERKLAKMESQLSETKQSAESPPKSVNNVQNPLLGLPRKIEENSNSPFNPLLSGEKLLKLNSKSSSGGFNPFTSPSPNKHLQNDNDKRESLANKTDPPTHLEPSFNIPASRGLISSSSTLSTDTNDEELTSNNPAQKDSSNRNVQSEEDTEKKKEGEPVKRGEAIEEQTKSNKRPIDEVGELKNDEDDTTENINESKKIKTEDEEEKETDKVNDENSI

Assays:
[1] = biological target: T1, Nab2 (nuclear abundant poly(A) RNA-binding protein 2), full-length, DBD fusion for two-hybrid (S. cerevisiae) (UniProt P32505); assay: two-hybrid; EGY48 reporter strain, Nab2 variants as DBD fusions (pEG202), CT-Mlp1 or Gfd1 as AD fusions (pJG4-5), lacZ reporter (blue colour), 30 °C
T1 sequence: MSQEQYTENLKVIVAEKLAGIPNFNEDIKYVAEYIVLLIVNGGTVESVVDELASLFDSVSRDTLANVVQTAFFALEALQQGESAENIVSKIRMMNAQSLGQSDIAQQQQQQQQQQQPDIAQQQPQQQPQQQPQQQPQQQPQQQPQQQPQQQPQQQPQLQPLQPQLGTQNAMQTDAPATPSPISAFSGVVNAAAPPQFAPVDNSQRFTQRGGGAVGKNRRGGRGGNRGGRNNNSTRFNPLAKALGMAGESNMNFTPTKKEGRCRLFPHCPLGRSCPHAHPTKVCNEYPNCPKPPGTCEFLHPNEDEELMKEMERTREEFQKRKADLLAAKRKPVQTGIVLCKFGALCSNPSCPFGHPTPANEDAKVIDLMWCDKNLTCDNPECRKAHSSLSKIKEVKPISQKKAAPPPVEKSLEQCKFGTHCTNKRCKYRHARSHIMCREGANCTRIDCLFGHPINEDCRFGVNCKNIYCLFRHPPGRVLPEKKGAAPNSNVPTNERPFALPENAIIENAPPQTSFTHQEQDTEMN

[2] = biological target: T2, GST-Nab2-N (GST fusion to the N-terminal domain of Nab2, residues 1–97) (S. cerevisiae) (UniProt P32505); assay: pull-down; Sepharose-bound GST fusion protein (6 μg) incubated with purified His-CT-Mlp1 (2 μg), washed three times with PBS, SDS-PAGE and Coomassie Blue staining; both purified
T2 sequence: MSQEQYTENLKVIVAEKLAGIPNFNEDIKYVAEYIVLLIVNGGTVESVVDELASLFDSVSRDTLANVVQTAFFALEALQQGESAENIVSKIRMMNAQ

[3] = biological target: T3, GST-Nab2-N F72D (aa 1–97) (S. cerevisiae) (UniProt P32505); assay: as above
T3 sequence: T2 sequence with F72D

[4] = biological target: T4, GST-Nab2-N F73W (S. cerevisiae) (UniProt P32505); assay: as above
T4 sequence: T2 sequence with F73W

[5] = biological target: T2, GST-Nab2-N (GST fusion to the N-terminal domain of Nab2, residues 1–97) (S. cerevisiae); assay: pull-down; purified GST fusion protein or GST added to yeast lysate (wild type, mlp1Δ or MLP1-TAP cells), recovered on glutathione beads; Coomassie Blue staining or immunoblotting with PAP antibody; only the target purified
[6] = biological target: T3, GST-Nab2-N F72D (aa 1–97) (S. cerevisiae); assay: as above
[7] = biological target: T5, GST-Nab2-N F73D (aa 1–97) (S. cerevisiae) (UniProt P32505); assay: as above
T5 sequence: T2 sequence with F73D

CT-Mlp1 (C-terminal globular domain of Mlp1, residues 1490–1875), AD fusion for two-hybrid (from UniProt Q02455 1490-1875) (domain or fragment)
binding [1]: binds

His-CT-Mlp1 (Mlp1 C-terminal domain fragment, amino acids 1490–1779) (from UniProt Q02455 1490-1779) (domain or fragment)
binding [2]: binds weakly | binding [3]: binds weakly | binding [4]: binds weakly

Mlp1 (myosin-like protein 1), full-length, endogenous in wild-type yeast lysate (from UniProt Q02455 1-1875)
binding [5]: binds

TAP-tagged Mlp1 (Mlp1-TAP), full-length, in yeast lysate (from UniProt Q02455 1-1875)
binding [5]: binds | binding [6]: binds | binding [7]: no binding
